The values below come from the supplement of paper PMC12423691.

Some of the results follow. Binding of human transcription factors and regulators to the viral nucleoprotein by AlphaScreen, crude cell-free proteins, amounts not normalised, one pass. Fold of the Venus control; higher = more signal. No active / inactive call. Single-pass screen; sequences are the whole Swiss-Prot entries looked up by name.

B1: ZNF483, Q8TF39 (protein)
chain: MQAVVPLNKMTAISPEPQTLASTEQNEVPRVVTSGEQEAILRGNAADAESFRQRFRWFCYSEVAGPRKALSQLWELCNQWLRPDIHTKEQILELLVFEQFLTILPGEIRIWVKSQHPESSEEVVTLIEDLTQMLEEKDPVSQDSTVSQEENSKEDKMVTVCPNTESCESITLKDVAVNFSRGEWKKLEPFQKELYKEVLLENLRNLEFLDFPVSKLELISQLKWVELPWLLEEVSKSSRLDESALDKIIERCLRDDDHGLMEESQQYCGSSEEDHGNQGNSKGRVAQNKTLGSGSRGKKFDPDKSPFGHNFKETSDLIKHLRVYLRKKSRRYNESKKPFSFHSDLVLNRKEKTAGEKSRKSNDGGKVLSHSSALTEHQKRQKIHLGDRSQKCSKCGIIFIRRSTLSRRKTPMCEKCRKDSCQEAALNKDEGNESGEKTHKCSKCGKAFGYSASLTKHRRIHTGEKPYMCNECGKAFSDSSSLTPHHRTHSGEKPFKCDDCGKGFTLSAHLIKHQRIHTGEKPYKCKDCGRPFSDSSSLIQHQRIHTGEKPYTCSNCGKSFSHSSSLSKHQRIHTGEKPYKCGECGKAFRQNSCLTRHQRIHTGEKPYLCNDCGMTFSHFTSVIYHQRLHSGEKPYKCNQCEKAFPTHSLLSRHQRIHTGVKPYKCKECGKSFSQSSSLNEHHRIHTGEKPYECNYCGATFSRSSILVEHLKIHTGRREYECNECEKTFKSNSGLIRHRGFHSAE
B2: RPS6KA4, O75676 (protein)
chain: MGDEDDDESCAVELRITEANLTGHEEKVSVENFELLKVLGTGAYGKVFLVRKAGGHDAGKLYAMKVLRKAALVQRAKTQEHTRTERSVLELVRQAPFLVTLHYAFQTDAKLHLILDYVSGGEMFTHLYQRQYFKEAEVRVYGGEIVLALEHLHKLGIIYRDLKLENVLLDSEGHIVLTDFGLSKEFLTEEKERTFSFCGTIEYMAPEIIRSKTGHGKAVDWWSLGILLFELLTGASPFTLEGERNTQAEVSRRILKCSPPFPPRIGPVAQDLLQRLLCKDPKKRLGAGPQGAQEVRNHPFFQGLDWVALAARKIPAPFRPQIRSELDVGNFAEEFTRLEPVYSPPGSPPPGDPRIFQGYSFVAPSILFDHNNAVMTDGLEAPGAGDRPGRAAVARSAMMQDSPFFQQYELDLREPALGQGSFSVCRRCRQRQSGQEFAVKILSRRLEANTQREVAALRLCQSHPNVVNLHEVHHDQLHTYLVLELLRGGELLEHIRKKRHFSESEASQILRSLVSAVSFMHEEAGVVHRDLKPENILYADDTPGAPVKIIDFGFARLRPQSPGVPMQTPCFTLQYAAPELLAQQGYDESCDLWSLGVILYMMLSGQVPFQGASGQGGQSQAAEIMCKIREGRFSLDGEAWQGVSEEAKELVRGLLTVDPAKRLKLEGLRGSSWLQDGSARSSPPLRTPDVLESSGPAVRSGLNATFMAFNRGKREGFFLKSVENAPLAKRRKQKLRSATASRRGSPAPANPGRAPVASKGAPRRANGPLPPS
B3: CREB3, O43889 (protein)
chain: MELELDAGDQDLLAFLLEESGDLGTAPDEAVRAPLDWALPLSEVPSDWEVDDLLCSLLSPPASLNILSSSNPCLVHHDHTYSLPRETVSMDLESESCRKEGTQMTPQHMEELAEQEIARLVLTDEEKSLLEKEGLILPETLPLTKTEEQILKRVRRKIRNKRSAQESRRKKKVYVGGLESRVLKYTAQNMELQNKVQLLEEQNLSLLDQLRKLQAMVIEISNKTSSSSTCILVLLVSFCLLLVPAMYSSDTRGSLPAEHGVLSRQLRALPSEDPYQLELPALQSEVPKDSTHQWLDGSDCVLQAPGNTSCLLHYMPQAPSAEPPLEWPFPDLFSEPLCRGPILPLQANLTRKGGWLPTGSPSVILQDRYSG
B4: TCF25, Q9BQ70 (protein)
chain: MSRRALRRLRGEQRGQEPLGPGALHFDLRDDDDAEEEGPKRELGVRRPGGAGKEGVRVNNRFELINIDDLEDDPVVNGERSGCALTDAVAPGNKGRGQRGNTESKTDGDDTETVPSEQSHASGKLRKKKKKQKNKKSSTGEASENGLEDIDRILERIEDSTGLNRPGPAPLSSRKHVLYVEHRHLNPDTELKRYFGARAILGEQRPRQRQRVYPKCTWLTTPKSTWPRYSKPGLSMRLLESKKGLSFFAFEHSEEYQQAQHKFLVAVESMEPNNIVVLLQTSPYHVDSLLQLSDACRFQEDQEMARDLVERALYSMECAFHPLFSLTSGACRLDYRRPENRSFYLALYKQMSFLEKRGCPRTALEYCKLILSLEPDEDPLCMLLLIDHLALRARNYEYLIRLFQEWEAHRNLSQLPNFAFSVPLAYFLLSQQTDLPECEQSSARQKASLLIQQALTMFPGVLLPLLESCSVRPDASVSSHRFFGPNAEISQPPALSQLVNLYLGRSHFLWKEPATMSWLEENVHEVLQAVDAGDPAVEACENRRKVLYQRAPRNIHRHVILSEIKEAVAALPPDVTTQSVMGFDPLPPSDTIYSYVRPERLSPISHGNTIALFFRSLLPNYTMEGERPEEGVAGGLNRNQGLNRLMLAVRDMMANFHLNDLEAPHEDDAEGEGEWD
B5: ATOH8, Q96SQ7 (protein)
chain: MKHIPVLEDGPWKTVCVKELNGLKKLKRKGKEPARRANGYKTFRLDLEAPEPRAVATNGLRDRTHRLQPVPVPVPVPVPVAPAVPPRGGTDTAGERGGSRAPEVSDARKRCFALGAVGPGLPTPPPPPPPAPQSQAPGGPEAQPFREPGLRPRILLCAPPARPAPSAPPAPPAPPESTVRPAPPTRPGESSYSSISHVIYNNHQDSSASPRKRPGEATAASSEIKALQQTRRLLANARERTRVHTISAAFEALRKQVPCYSYGQKLSKLAILRIACNYILSLARLADLDYSADHSNLSFSECVQRCTRTLQAEGRAKKRKE
B6: TBX22, Q9Y458 (protein)
chain: MALSSRARAFSVEALVGRPSKRKLQDPIQAEQPELREKKGGEEEEERRSSAAGKSEPLEKQPKTEPSTSASSGCGSDSGYGNSSESLEEKDIQMELQGSELWKRFHDIGTEMIITKAGRRMFPSVRVKVKGLDPGKQYHVAIDVVPVDSKRYRYVYHSSQWMVAGNTDHLCIIPRFYVHPDSPCSGETWMRQIISFDRMKLTNNEMDDKGHIILQSMHKYKPRVHVIEQGSSVDLSQIQSLPTEGVKTFSFKETEFTTVTAYQNQQITKLKIERNPFAKGFRDTGRNRGVLDGLLETYPWRPSFTLDFKTFGADTQSGSSGSSPVTSSGGAPSPLNSLLSPLCFSPMFHLPTSSLGMPCPEAYLPNVNLPLCYKICPTNFWQQQPLVLPAPERLASSNSSQSLAPLMMEVPMLSSLGVTNSKSGSSEDSSDQYLQAPNSTNQMLYGLQSPGNIFLPNSITPEALSCSFHPSYDFYRYNFSMPSRLISGSNHLKVNDDSQVSFGEGKCNHVHWYPAINHYL
B7: TBX19, O60806 (protein)
chain: MAMSELGTRKPSDGTVSHLLNVVESELQAGREKGDPTEKQLQIILEDAPLWQRFKEVTNEMIVTKNGRRMFPVLKISVTGLDPNAMYSLLLDFVPTDSHRWKYVNGEWVPAGKPEVSSHSCVYIHPDSPNFGAHWMKAPISFSKVKLTNKLNGGGQIMLNSLHKYEPQVHIVRVGSAHRMVTNCSFPETQFIAVTAYQNEEITALKIKYNPFAKAFLDAKERNHLRDVPEAISESQHVTYSHLGGWIFSNPDGVCTAGNSNYQYAAPLPLPAPHTHHGCEHYSGLRGHRQAPYPSAYMHRNHSPSVNLIESSSNNLQVFSGPDSWTSLSSTPHASILSVPHTNGPINPGPSPYPCLWTISNGAGGPSGPGPEVHASTPGAFLLGNPAVTSPPSVLSTQAPTSAGVEVLGEPSLTSIAVSTWTAVASHPFAGWGGPGAGGHHSPSSLDG
B8: POU2F3, Q9UKI9 (protein)
chain: MVNLESMHTDIKMSGDVADSTDARSTLSQVEPGNDRNGLDFNRQIKTEDLSDSLQQTLSHRPCHLSQGPAMMSGNQMSGLNASPCQDMASLHPLQQLVLVPGHLQSVSQFLLSQTQPGQQGLQPNLLPFPQQQSGLLLPQTGPGLASQAFGHPGLPGSSLEPHLEASQHLPVPKHLPSSGGADEPSDLEELEKFAKTFKQRRIKLGFTQGDVGLAMGKLYGNDFSQTTISRFEALNLSFKNMCKLKPLLEKWLNDAESSPSDPSVSTPSSYPSLSEVFGRKRKKRTSIETNIRLTLEKRFQDNPKPSSEEISMIAEQLSMEKEVVRVWFCNRRQKEKRINCPVATPIKPPVYNSRLVSPSGSLGPLSVPPVHSTMPGTVTSSCSPGNNSRPSSPGSGLHASSPTASQNNSKAAVNSASSFNSSGSWYRWNHSTYLH
B9: ZEB1, P37275 (protein)
chain: MADGPRCKRRKQANPRRNNVTNYNTVVETNSDSDDEDKLHIVEEESVTDAADCEGVPEDDLPTDQTVLPGRSSEREGNAKNCWEDDRKEGQEILGPEAQADEAGCTVKDDECESDAENEQNHDPNVEEFLQQQDTAVIFPEAPEEDQRQGTPEASGHDENGTPDAFSQLLTCPYCDRGYKRFTSLKEHIKYRHEKNEDNFSCSLCSYTFAYRTQLERHMTSHKSGRDQRHVTQSGCNRKFKCTECGKAFKYKHHLKEHLRIHSGEKPYECPNCKKRFSHSGSYSSHISSKKCISLIPVNGRPRTGLKTSQCSSPSLSASPGSPTRPQIRQKIENKPLQEQLSVNQIKTEPVDYEFKPIVVASGINCSTPLQNGVFTGGGPLQATSSPQGMVQAVVLPTVGLVSPISINLSDIQNVLKVAVDGNVIRQVLENNQANLASKEQETINASPIQQGGHSVISAISLPLVDQDGTTKIIINYSLEQPSQLQVVPQNLKKENPVATNSCKSEKLPEDLTVKSEKDKSFEGGVNDSTCLLCDDCPGDINALPELKHYDLKQPTQPPPLPAAEAEKPESSVSSATGDGNLSPSQPPLKNLLSLLKAYYALNAQPSAEELSKIADSVNLPLDVVKKWFEKMQAGQISVQSSEPSSPEPGKVNIPAKNNDQPQSANANEPQDSTVNLQSPLKMTNSPVLPVGSTTNGSRSSTPSPSPLNLSSSRNTQGYLYTAEGAQEEPQVEPLDLSLPKQQGELLERSTITSVYQNSVYSVQEEPLNLSCAKKEPQKDSCVTDSEPVVNVIPPSANPINIAIPTVTAQLPTIVAIADQNSVPCLRALAANKQTILIPQVAYTYSTTVSPAVQEPPLKVIQPNGNQDERQDTSSEGVSNVEDQNDSDSTPPKKKMRKTENGMYACDLCDKIFQKSSSLLRHKYEHTGKRPHECGICKKAFKHKHHLIEHMRLHSGEKPYQCDKCGKRFSHSGSYSQHMNHRYSYCKREAEERDSTEQEEAGPEILSNEHVGARASPSQGDSDERESLTREEDEDSEKEEEEEDKEMEELQEEKECEKPQGDEEEEEEEEEVEEEEVEEAENEGEEAKTEGLMKDDRAESQASSLGQKVGESSEQVSEEKTNEA

The target of the experiment is nucleoprotein N of Crimean-Congo hemorrhagic fever virus. Nature of the experiment: AlphaScreen luminescence signal relative to Venus negative control (fold); higher = stronger binding to CCHFV N. The protocol: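 AlphaScreen binding of cell-free made, FLAG-GST-tagged human transcription factors and regulators (crude translation products) to biotinylated N protein; signal as fold of the FLAG-GST-Venus control. One pass.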
Background: Bead proximity is the source of the signal in Alpha formats.
In turn, B1 displayed an AlphaScreen luminescence signal of 1.81.
For B2 the value was 2.33.
For B3 the value was 4.7; for B4, 9.58.
B5 came in with an AlphaScreen luminescence signal of 7.12.
For B6, the AlphaScreen luminescence signal is 2.09.
For B7 the value was 1.67; for B8, 2.74.
For B9 the value was 2.
